Data as given in a collection of fitness landscapes (doi:10.1016/j.celrep.2020.107928).
Whole data set: some 81,000 sequences, median “one-hybrid fitness for binding parS DNA” near -0.17, cut for the highest 2% near 0.51. This is one part of the list.

B1: Caulobacter ParB omega fusion; a variant is named by its letters at X, in order, B8GW30 (parent)
chain: MESVVVGEPGMSEGRRGLGRGLSALLGEVDAAPAQAPGEQLGGSREAPIEILQRNPDQPRRTFREEDLEDLSNSIREKGVLQPILVRPSPDTAGEYQIVAGERAWRAAQRAGLKTVPIMVRELDDLAVLEIGIIENVQRADLNVLEEALSYKVLMEKFERTQENIAQTIGKSXSHVANXMRLLXLPDEVQSYLVSGELTAXHARAIAAAADPVALAKQIIEGGLSVRETEALARKAPNLSAGKSKGGRPPRVKDTDTQALESDLSSVLGLDVSIDHRGSTGTLTITYATLEQLDDLCNRLTRGI

Variants of: B1
Assay: one-hybrid fitness for binding parS DNA (scaled: cognate 1, non-cognate 0); higher = stronger binding
Settings: with parS DNA site
Outline: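 The reporter was HIS3, with the binding site 19 bp from the promoter, in E. coli USO used for bacterial one-hybrid selection of Caulobacter ParB libraries with four specificity codons randomised. Growth was on M9 lacking histidine, with 0.1 mM IPTG and 5 mM 3-AT, for 48 hours at 37°C. Illumina sequencing covered plasmids before and after selection; three replicate libraries were pooled and variants with under 10 reads dropped. A fitness score is the log change in variant-to-wild-type read ratio, rescaled to the cognate and non-cognate references.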

Row | Variant | one-hybrid fitness for binding parS DNA
1 | ALSA | ≤ 0.2
2 | RTVH | ≤ 0.2
3 | IQMT | ≤ 0.2
4 | QQYM | ≤ 0.2
5 | DTQF | ≤ 0.2
6 | PEKM | ≤ 0.2
7 | TDNS | ≤ 0.2
8 | NPLY | ≤ 0.2
9 | SNQS | ≤ 0.2
10 | IADR | ≤ 0.2
11 | GVYF | ≤ 0.2
12 | LWAY | ≤ 0.2
13 | MIGI | ≤ 0.2
14 | IFSA | ≤ 0.2
15 | SYNR | ≤ 0.2
16 | CAYG | ≤ 0.2
17 | PFQT | ≤ 0.2
18 | QEDS | ≤ 0.2
19 | NIPY | ≤ 0.2
20 | YDVW | ≤ 0.2
21 | PVQC | ≤ 0.2
22 | FQDC | ≤ 0.2
23 | ISES | ≤ 0.2
24 | NHSY | ≤ 0.2

Row | Variant | one-hybrid fitness for binding parS DNA
25 | TEEA | ≤ 0.2
26 | PHAW | ≤ 0.2
27 | YKIS | ≤ 0.2
28 | FAQL | ≤ 0.2
29 | NASC | ≤ 0.2
30 | SYQS | ≤ 0.2
31 | PRKL | ≤ 0.2
32 | SEVG | ≤ 0.2
33 | ASKS | ≤ 0.2
34 | THPQ | ≤ 0.2
35 | LTAD | ≤ 0.2
36 | SEHT | ≤ 0.2
37 | CSCG | ≤ 0.2
38 | ANRL | ≤ 0.2
39 | RLCG | 1
40 | NTTM | ≤ 0.2
41 | KTKR | ≤ 0.2
42 | RISD | ≤ 0.2
43 | RFKC | 0.991
44 | IARS | ≤ 0.2
45 | CLDT | ≤ 0.2
46 | GFDG | ≤ 0.2
47 | CPFR | ≤ 0.2
48 | WNSG | ≤ 0.2

Row | Variant | one-hybrid fitness for binding parS DNA
49 | GIGS | ≤ 0.2
50 | YYQR | ≤ 0.2
51 | SASK | ≤ 0.2
52 | QLGS | ≤ 0.2
53 | TAGV | ≤ 0.2
54 | RQKV | ≤ 0.2
55 | LDEQ | 0.369
56 | DRES | ≤ 0.2
57 | HVFI | ≤ 0.2
58 | PSEM | 0.331
59 | CKSA | ≤ 0.2
60 | GMFN | ≤ 0.2
61 | TLEL | ≤ 0.2
62 | LDVF | ≤ 0.2
63 | HLPR | ≤ 0.2
64 | SSML | ≤ 0.2
65 | MDSF | ≤ 0.2
66 | AQET | ≤ 0.2
67 | KTDC | ≤ 0.2
68 | ELRT | ≤ 0.2
69 | TCFA | ≤ 0.2
70 | PSAW | ≤ 0.2
71 | QLGD | ≤ 0.2
72 | SHIT | ≤ 0.2

Row | Variant | one-hybrid fitness for binding parS DNA
73 | ASHL | ≤ 0.2
74 | DCNS | ≤ 0.2
75 | SIVR | ≤ 0.2
76 | TSVI | ≤ 0.2
77 | QCHM | ≤ 0.2
78 | VHVF | ≤ 0.2
79 | HVKN | ≤ 0.2
80 | PALH | ≤ 0.2
81 | DFMA | ≤ 0.2
82 | FNFR | ≤ 0.2
83 | WAHR | ≤ 0.2
84 | SGNT | ≤ 0.2
85 | CPVS | ≤ 0.2
86 | IQTR | ≤ 0.2
87 | YEYG | ≤ 0.2
88 | YTSR | ≤ 0.2
89 | LEQR | ≤ 0.2
90 | PGQR | ≤ 0.2
91 | HPPE | ≤ 0.2
92 | TFPS | ≤ 0.2
93 | ASAL | ≤ 0.2
94 | PAES | ≤ 0.2
95 | RSLE | ≤ 0.2
96 | ESIP | ≤ 0.2

Row | Variant | one-hybrid fitness for binding parS DNA
97 | RVTC | 0.982
98 | SFFV | ≤ 0.2
99 | GNDK | ≤ 0.2
100 | MNHL | ≤ 0.2
101 | PTPP | ≤ 0.2
102 | ARWL | ≤ 0.2
103 | RTCP | ≤ 0.2
104 | FATW | ≤ 0.2
105 | AMAN | ≤ 0.2
106 | HYTA | ≤ 0.2
107 | TWEE | ≤ 0.2
108 | RYHH | 0.213
109 | VTTR | ≤ 0.2
110 | ALFC | ≤ 0.2
111 | CYAT | ≤ 0.2
112 | PGLS | ≤ 0.2
113 | DQNL | ≤ 0.2
114 | SLKQ | ≤ 0.2
115 | QDPS | ≤ 0.2
116 | NSKT | ≤ 0.2
117 | STNQ | ≤ 0.2
118 | CYPR | ≤ 0.2
119 | ACLY | ≤ 0.2
120 | RWAQ | ≤ 0.2

Row | Variant | one-hybrid fitness for binding parS DNA
121 | TPFD | ≤ 0.2
122 | FHVY | ≤ 0.2
123 | LHSV | ≤ 0.2
124 | KNTH | ≤ 0.2
125 | DVPE | ≤ 0.2
126 | CHAY | ≤ 0.2
127 | AVKP | ≤ 0.2
128 | FAGQ | ≤ 0.2
129 | WMAQ | ≤ 0.2
130 | MDFK | ≤ 0.2
131 | PTFI | ≤ 0.2
132 | QGAC | ≤ 0.2
133 | AHLM | ≤ 0.2
134 | VKLY | ≤ 0.2
135 | HRTW | ≤ 0.2
136 | NPYM | ≤ 0.2
137 | AVGT | ≤ 0.2
138 | PYKW | ≤ 0.2
139 | PSTL | ≤ 0.2
140 | QTMF | ≤ 0.2
141 | GSLE | ≤ 0.2
142 | PLDP | ≤ 0.2
143 | TMGV | ≤ 0.2
144 | TYGG | ≤ 0.2

Row | Variant | one-hybrid fitness for binding parS DNA
145 | AVSS | ≤ 0.2
146 | VDQR | ≤ 0.2
147 | NYKW | ≤ 0.2
148 | TSEC | ≤ 0.2
149 | HYAT | ≤ 0.2
150 | EDGG | ≤ 0.2
151 | TTEE | ≤ 0.2
152 | YQCG | ≤ 0.2
153 | LQDA | ≤ 0.2
154 | HDPW | ≤ 0.2
155 | NRIS | ≤ 0.2
156 | ALMA | ≤ 0.2
157 | NQMS | ≤ 0.2
158 | KKWT | ≤ 0.2
159 | LMSS | ≤ 0.2
160 | ALSL | ≤ 0.2
161 | LGRG | ≤ 0.2
162 | DSLM | ≤ 0.2
163 | EYTV | ≤ 0.2
164 | PETW | ≤ 0.2
165 | FNGE | ≤ 0.2
166 | KKKV | ≤ 0.2
167 | LRTT | ≤ 0.2
168 | IFRR | ≤ 0.2

Row | Variant | one-hybrid fitness for binding parS DNA
169 | LCLE | ≤ 0.2
170 | RQKE | ≤ 0.2
171 | DSQD | ≤ 0.2
172 | IPYW | ≤ 0.2
173 | RFTF | 0.202
174 | NYDL | ≤ 0.2
175 | SKLS | ≤ 0.2
176 | VKCF | ≤ 0.2
177 | ETHC | ≤ 0.2
178 | PHYL | ≤ 0.2
179 | RREF | ≤ 0.2
180 | VVIC | ≤ 0.2
181 | SYRH | ≤ 0.2
182 | MEAG | ≤ 0.2
183 | DSDK | ≤ 0.2
184 | NGYD | ≤ 0.2
185 | VYAL | ≤ 0.2
186 | GAHC | ≤ 0.2
187 | RRMK | ≤ 0.2
188 | IETG | ≤ 0.2
189 | ARSS | ≤ 0.2
190 | SWTG | ≤ 0.2
191 | SPMV | ≤ 0.2
192 | GQNG | ≤ 0.2

Row | Variant | one-hybrid fitness for binding parS DNA
193 | VFWT | ≤ 0.2
194 | YSMR | ≤ 0.2
195 | GFLT | ≤ 0.2
196 | AFNR | ≤ 0.2
197 | MLTD | ≤ 0.2
198 | EILS | ≤ 0.2
199 | KLAN | ≤ 0.2
200 | SMGH | ≤ 0.2
201 | RKGC | 0.827
202 | NIAR | ≤ 0.2
203 | HYPC | ≤ 0.2
204 | PYVF | ≤ 0.2
205 | PTFF | ≤ 0.2
206 | AVAP | ≤ 0.2
207 | AWGV | ≤ 0.2
208 | DQMR | ≤ 0.2
209 | EYAG | ≤ 0.2
210 | RWYR | ≤ 0.2
211 | PPTF | ≤ 0.2
212 | KDVA | ≤ 0.2
213 | MQDR | ≤ 0.2
214 | HSKM | ≤ 0.2
215 | GDIS | ≤ 0.2
216 | RHTS | 0.893

Row | Variant | one-hybrid fitness for binding parS DNA
217 | LGTW | ≤ 0.2
218 | TPRP | ≤ 0.2
219 | DCVT | ≤ 0.2
220 | VSSC | ≤ 0.2
221 | MANV | ≤ 0.2
222 | SEGS | ≤ 0.2
223 | FRLP | ≤ 0.2
224 | TSMM | ≤ 0.2
225 | FTTS | ≤ 0.2
226 | TVVV | ≤ 0.2
227 | DYRM | ≤ 0.2
228 | TSFW | ≤ 0.2
229 | MDHG | ≤ 0.2
230 | AIVV | ≤ 0.2
231 | VECG | ≤ 0.2
232 | HHAW | ≤ 0.2
233 | RPCK | ≤ 0.2
234 | RTDP | ≤ 0.2
235 | QTMR | ≤ 0.2
236 | QFEV | ≤ 0.2
237 | IAQS | ≤ 0.2
238 | NRND | ≤ 0.2
239 | MPRL | ≤ 0.2
240 | SCFR | ≤ 0.2

Row | Variant | one-hybrid fitness for binding parS DNA
241 | HPGW | ≤ 0.2
242 | HSNL | ≤ 0.2
243 | HKSR | ≤ 0.2
244 | AKTT | ≤ 0.2
245 | LARN | ≤ 0.2
246 | HSAW | ≤ 0.2
247 | FAKD | ≤ 0.2
248 | LKAA | ≤ 0.2
249 | CALA | ≤ 0.2
250 | RSTS | 0.986
251 | TLFR | ≤ 0.2
252 | KTLG | ≤ 0.2
253 | VHLC | ≤ 0.2
254 | FTTE | ≤ 0.2
255 | ISQM | ≤ 0.2
256 | ERPL | ≤ 0.2
257 | ARRC | ≤ 0.2
258 | RSHY | 0.491
259 | SLYD | ≤ 0.2
260 | SMYC | ≤ 0.2
261 | RSLV | ≤ 0.2
262 | KKTS | ≤ 0.2
263 | RYKE | ≤ 0.2
264 | EGFG | ≤ 0.2

Row | Variant | one-hybrid fitness for binding parS DNA
265 | AQNV | ≤ 0.2
266 | TMVL | ≤ 0.2
267 | LQQS | ≤ 0.2
268 | QATP | ≤ 0.2
269 | QEKE | ≤ 0.2
270 | AMNH | ≤ 0.2
271 | RGHW | ≤ 0.2
272 | EMFG | ≤ 0.2
273 | DLSA | ≤ 0.2
274 | NCYL | ≤ 0.2
275 | IFPE | ≤ 0.2
276 | GADT | ≤ 0.2
277 | ANYS | ≤ 0.2
278 | LDAL | ≤ 0.2
279 | QVRG | ≤ 0.2
280 | VGVT | ≤ 0.2
281 | EKMM | ≤ 0.2
282 | HPKS | ≤ 0.2
283 | HVYC | ≤ 0.2
284 | WRWT | ≤ 0.2
285 | RMPG | 0.775
286 | QWPA | ≤ 0.2
287 | GTYG | ≤ 0.2
288 | RWSS | 0.912

Row | Variant | one-hybrid fitness for binding parS DNA
289 | RESK | ≤ 0.2
290 | NRAA | ≤ 0.2
291 | ESKF | ≤ 0.2
292 | YQTR | ≤ 0.2
293 | GFNT | ≤ 0.2
294 | WGNR | ≤ 0.2
295 | TLRH | ≤ 0.2
296 | CEIK | ≤ 0.2
297 | NSTG | ≤ 0.2
298 | EHTS | ≤ 0.2
299 | AQPA | ≤ 0.2
300 | VRKW | ≤ 0.2
301 | PAAE | ≤ 0.2
302 | ILTP | ≤ 0.2
303 | HTQF | ≤ 0.2
304 | FCNG | ≤ 0.2
305 | VRGW | ≤ 0.2
306 | YMPN | ≤ 0.2
